Measured values from patent US5003011A, “Therapeutic decapeptides” (The Administrators of the Tulane Educational Fund, priority 1989, dated 1991).
Read-outs that look alike come from different tables or passages of the source. At least one peptide structure holds a part that was inferred or is arguable (an end, a ring closure or a residue). Numbered stars: 1 amine (or outer) side, 2 acyl side, 3 side chain; on linkers, the order of the positions; unused ones are H or OH. Square brackets hold non-standard residues; d marks the D form. Peptide text beside a SMILES is read from it. X1 = O=C([C@@H](CCCCNC1CCCC1)N[*:1])[*:2]; X2 = O=C([C@H](CCCCNC1CCCC1)N[*:1])[*:2]; d2Nal = N[C@H](Cc1ccc2ccccc2c1)C(=O)O

Legend:
[1] = test system: murine MXT mammary ductal papillary carcinoma; assay: MXT mammary carcinoma growth in mice; type: in vivo
[2] = test system: human mammary tumor (MCF-7); assay: 6-day subrenal capsule assay, MCF-7 human mammary tumor implanted in mice; type: in vivo; settings: for % Test/Control / Average Tumor Size (Mean ± S.D.), change Day 6 - Day 0: QDO5; for desensitization of mouse pituitary LHRH receptors: high dosage (100 μg/inj.); for tumor size, % of the control size: experiment 3, text, daily s.c. injections (2 ug)
[3] = test system: endocrine organs of MXT tumor bearing mice; assay: Endocrine organ weights of MXT tumor bearing mice; type: in vivo; settings: 25 μg/day
[4] = test system: androgen sensitive (2PR-121D(1)/S) noble rat prostate tumor; assay: Androgen sensitive noble rat prostate tumor growth; type: in vivo; settings: dose of 50 ug, daily for 10 to 30 days post-tumor implant; greater than castrate control
[5] = test system: human prostate tumor DU/145; assay: DU/145 human prostate tumor xenograft in athymic nude mice; type: in vivo; settings: 12.5 ug daily for 30 days; day 33 post-implant
[6] = test system: Dunning rat prostate tumor R3327; type: in vivo; settings: for Tumor Size Day 99: Day 99 = first administration; for Tumor Increase: Day 99 to Day 165
[7] = test system: rat MT/W9A-S mammary adenocarcinoma; assay: MT/W9A-S mammary adenocarcinoma growth in rats; type: in vivo; settings: very high dose (250 ug)
[8] = Plasma testosterone at sacrifice in R3327 tumor bearing rats; type: in vivo, rat
[9] = test system: androgen resistant (2PR-121D(1)/R) noble rat prostate tumor; assay: Androgen resistant noble rat prostate tumor growth; type: in vivo; settings: dose of 50 ug, daily for 10 to 30 days post-tumor implant; greater than castrate control
[10] = test system: endocrine organs in R3327 prostate tumor bearing rats; assay: Endocrine organ weights in R3327 prostate tumor bearing rats; type: in vivo, rat; settings: for % Variation Adrenals weight / % Variation Pituitary weight / % Variation Testes weight / % Variation Ventral Prostate weight / % Variation Whole Prostate weight: vs vehicle
[11] = experiment 1 (Table 1), 25 μg daily per mouse s.c., 6 days

## CC(C)C[C@H](NC(=O)[C@@H](Cc1c[nH]c2ccccc12)NC(=O)[C@H](Cc1ccc(O)cc1)NC(=O)[C@H](CO)NC(=O)[C@H](Cc1c[nH]c2ccccc12)NC(=O)[C@H](Cc1c[nH]cn1)NC(=O)[C@@H]1CCC(=O)N1)C(=O)N[C@@H](CCCNC(=N)N)C(=O)N1CCC[C@H]1C(=O)NCC(N)=O [BIM-21003, reference compound]
[1]; agonist, FIG. 1
  effect on tumor growth (FIG. 1): stimulatory effect
[2]; Table 2, 100 μg/inj. s.c.
  % Test/Control: 122%
  Average Tumor Size (Mean ± S.D.), change Day 6 - Day 0: 2.44 ± 0.98 omu
[2]; Table 2
  desensitization of mouse pituitary LHRH receptors: do not desensitize mouse pituitary LHRH receptors

## CC(=O)N[C@H](Cc1ccc2ccccc2c1)C(=O)N[C@H](Cc1ccc(Cl)cc1)C(=O)N[C@H](Cc1c[nH]c2ccccc12)C(=O)N[C@@H](CO)C(=O)N[C@@H](Cc1ccc(O)cc1)C(=O)N[C@H](CCCNC(=N)N)C(=O)N[C@@H](Cc1ccccc1)C(=O)N[C@@H](CCCNC(=N)N)C(=O)N1CCC[C@H]1C(=O)N[C@H](C)C(N)=O [BIM-21023] (HELM PEPTIDE1{[ac].[O=C([C@@H](Cc1ccc2ccccc2c1)N[*:1])[*:2]].[O=C([C@@H](Cc1ccc(Cl)cc1)N[*:1])[*:2]].[dW].S.Y.[dR].F.R.P.[dA].[am]}$$$$V2.0)
[2]; Table 3, 25 μg/inj. s.c.
  % Test/Control: 29%
  Average Tumor Size (Mean ± S.D.), change Day 6 - Day 0: 1.05 ± 1.13 omu
[2]; 6 days
  tumor size, % of the control size: 29%

## CC(=O)N[C@H](Cc1ccc2ccccc2c1)C(=O)N[C@H](Cc1ccccc1)C(=O)N[C@H](Cc1ccccc1)C(=O)N[C@@H](CO)C(=O)N[C@@H](Cc1ccc(O)cc1)C(=O)N[C@H](CCCCNCc1ccccc1)C(=O)N[C@@H](Cc1ccccc1)C(=O)N[C@@H](CCCNC(=N)N)C(=O)N1CCC[C@H]1C(=O)N[C@H](C)C(N)=O [BIM-21025] (HELM PEPTIDE1{[ac].[O=C([C@@H](Cc1ccc2ccccc2c1)N[*:1])[*:2]].[dF].[dF].S.Y.[O=C([C@@H](CCCCNCc1ccccc1)N[*:1])[*:2]].F.R.P.[dA].[am]}$$$$V2.0)
[2]; Table 3, 25 μg/inj. s.c.
  % Test/Control: 12%
  Average Tumor Size (Mean ± S.D.), change Day 6 - Day 0: 0.45 ± 0.76 omu
[2]; 6 days
  tumor size, % of the control size: 12%

## CC(=O)N[C@H](Cc1ccc2ccccc2c1)C(=O)N[C@H](Cc1ccccc1)C(=O)N[C@H](Cc1ccccc1)C(=O)N[C@@H](CO)C(=O)N[C@@H](Cc1ccccc1)C(=O)N[C@H](CCCNC(=N)N)C(=O)N[C@@H](CC(C)C)C(=O)N[C@@H](CCCNC(=N)N)C(=O)N1CCC[C@H]1C(=O)N[C@H](C)C(N)=O [BIM-21024] (HELM PEPTIDE1{[ac].[O=C([C@@H](Cc1ccc2ccccc2c1)N[*:1])[*:2]].[dF].[dF].S.F.[dR].L.R.P.[dA].[am]}$$$$V2.0)
[2]; Table 3, 25 μg/inj. s.c.
  % Test/Control: 11%
  Average Tumor Size (Mean ± S.D.), change Day 6 - Day 0: 0.04 ± 0.77 omu
[2]; 6 days
  tumor size, % of the control size: 11%

## CC(=O)N[C@H](Cc1ccc2ccccc2c1)C(=O)N[C@H](Cc1ccccc1)C(=O)N[C@H](Cc1ccccc1)C(=O)N[C@@H](CO)C(=O)N[C@@H](Cc1ccc(O)cc1)C(=O)N[C@H](CCCNC(=N)N)C(=O)N[C@@H](Cc1ccccc1)C(=O)N[C@@H](CCCNC(=N)N)C(=O)N1CCC[C@H]1C(=O)N[C@H](C)C(N)=O [BIM-21011] (HELM PEPTIDE1{[ac].[O=C([C@@H](Cc1ccc2ccccc2c1)N[*:1])[*:2]].[dF].[dF].S.Y.[dR].F.R.P.[dA].[am]}$$$$V2.0)
[2]; Table 2, 1 μg/inj. s.c.
  % Test/Control: 83%
  Average Tumor Size (Mean ± S.D.), change Day 6 - Day 0: 1.65 ± 0.71 omu
[2]; Table 2, 10 μg/inj. s.c.
  % Test/Control: 72%
  Average Tumor Size (Mean ± S.D.), change Day 6 - Day 0: 1.44 ± 1.21 omu
[2]; Table 2, 15 μg/inj. s.c.
  % Test/Control: 34%
  Average Tumor Size (Mean ± S.D.), change Day 6 - Day 0: 0.069 ± 0.61 omu

## CC(=O)N[C@H](Cc1ccc2ccccc2c1)C(=O)N[C@H](Cc1ccccc1)C(=O)N[C@H](Cc1ccccc1)C(=O)N[C@@H](CO)C(=O)N[C@@H](Cc1ccc(O)cc1)C(=O)N[C@H](CCCCNC1CCCC1)C(=O)N[C@@H](Cc1ccccc1)C(=O)N[C@@H](CCCCNC1CCCC1)C(=O)N1CCC[C@H]1C(=O)N[C@H](C)C(N)=O [BIM-21026] (Ac-[d2Nal][dF][dF]SY[X1]F[X2]P[dA]-NH2)
[2]; Table 3, 25 μg/inj. s.c.
  % Test/Control: 8%
  Average Tumor Size (Mean ± S.D.), change Day 6 - Day 0: 0.30 ± 0.46 omu
[2]; 6 days
  tumor size, % of the control size: 8%

## CC(C)C[C@H](NC(=O)[C@@H](Cc1ccccc1)NC(=O)[C@H](Cc1ccc(O)cc1)NC(=O)[C@H](CO)NC(=O)[C@H](Cc1c[nH]c2ccccc12)NC(=O)[C@H](Cc1c[nH]cn1)NC(=O)[C@@H]1CCC(=O)N1)C(=O)N[C@@H](CCCNC(=N)N)C(=O)N1CCC[C@H]1C(=O)NCC(N)=O [BIM-21006, reference compound]
[2]; Table 2, 100 μg/inj. s.c.
  % Test/Control: 63%
  Average Tumor Size (Mean ± S.D.), change Day 6 - Day 0: 1.25 ± 1.39 omu
[2]; Table 2
  desensitization of mouse pituitary LHRH receptors: do not desensitize mouse pituitary LHRH receptors

## CC(=O)N[C@H](Cc1ccc2ccccc2c1)C(=O)N[C@H](Cc1ccc(Cl)cc1)C(=O)N[C@H](Cc1ccccc1)C(=O)N[C@@H](CO)C(=O)N[C@@H](Cc1ccc(O)cc1)C(=O)N[C@H](CCCNC(=N)N)C(=O)N[C@@H](Cc1ccccc1)C(=O)N[C@@H](CCCNC(=N)N)C(=O)N1CCC[C@H]1C(=O)N[C@H](C)C(N)=O [BIM-21009] (HELM PEPTIDE1{[ac].[O=C([C@@H](Cc1ccc2ccccc2c1)N[*:1])[*:2]].[O=C([C@@H](Cc1ccc(Cl)cc1)N[*:1])[*:2]].[dF].S.Y.[dR].F.R.P.[dA].[am]}$$$$V2.0)
[3]
  Organ Weights Adrenals: 8.90 ± 0.27 mg
  Organ Weights Ovaries: 8.14 ± 0.58 mg
  Organ Weights Pituitary: 1.50 ± 0.08 mg
  Organ Weights Uteri: 17.69 ± 1.00 mg
[3]; vs vehicle
  % Variation Adrenals weight: 0%
  % Variation Ovaries weight: -47%
  % Variation Pituitary weight: -35%
  % Variation Uteri weight: -77%
[3]; vs vehicle, listed as BM-21009
  % Variation Ovaries weight: -47.35%
  % Variation Pituitary weight: -35.06%
  % Variation Uteri weight: -77.02%
[1]; 25 μg daily per mouse s.c.
  % Variation (tumor increase vs vehicle): -95%
  Tumor Size Day 14: 1.8 ± 0.66 mm
[1]; 25 μg daily per mouse s.c., day 1 to day 37
  Tumor Size Day 38: 2.2 ± 0.64 mm
[1]; 25 μg daily per mouse s.c., Day 14 to Day 38
  Tumor Increase: 0.4 mm
[1]; 25 μg daily per mouse s.c., listed as BM-21009
  % Variation (tumor increase vs vehicle): -95.40%
[1]; different doses
  dose dependence of tumor reduction (FIG. 2): dose of BIM-21009 is proportionate to the size of reduction of the tumor
[1]; dose of 25 ug
  effect on tumor size (FIG. 2): significantly reduced tumor size, but not to the extent of castrate control
[1]; dose of 50 ug
  effect on tumor size and escape from castration (FIG. 3): reduces tumor size and thus retards that escape
[4]
  response of tumor size: reduction in tumor size
[5]
  effect on average human prostate tumor size (FIG. 5): reduced the average human prostate tumor size significantly
[6]; 5 μg daily per rat
  % Variation (tumor increase vs vehicle): -20.27%
  Tumor Increase: 17.70 mm
[6]; 5 μg daily per rat s.c. from day 99
  Tumor Size Day 165: 28.90 ± 3.48 mm
[6]; 5 μg daily per rat s.c.
  Tumor Size Day 99: 11.20 ± 1.29 mm
[6]; 5 ug/rat
  effect on tumor growth: no significant effect on tumor growth
[6]; 20 μg daily per rat
  % Variation (tumor increase vs vehicle): -40.99%
  Tumor Increase: 13.100 mm
[6]; 20 μg daily per rat s.c.
  Tumor Size Day 99: 11.00 ± 2.51 mm
[7]
  effect on tumor size and escape from ovariectomy (FIG. 4): reduces tumor size and thus retards that escape
[8]; 5 ug/rat
  Plasma testosterone level: 0.87 ng/mL
[8]; 20 ug/rat
  Plasma testosterone level: nil
[9]
  response of tumor size: reduction in tumor size
[2]; Table 2, 1 μg/inj. s.c.
  % Test/Control: 53%
  Average Tumor Size (Mean ± S.D.), change Day 6 - Day 0: 1.06 ± 0.83 omu
[2]; Table 2, 10 μg/inj. s.c.
  % Test/Control: 28%
  Average Tumor Size (Mean ± S.D.), change Day 6 - Day 0: 0.56 ± 0.85 omu
[2]; [11]
  % Variation (change in tumor size vs vehicle): -28.33%
  Change In Tumor Size: -0.17 ± 0.75 mm
[2]; experiment 1, text, 25 ug daily s.c., 6 days
  size of the tumor relative to vehicle-treated control: 28%
[10]; 5 μg
  Adrenals weight: 32 ± 2 mg
  Pituitary weight: 7.0 ± 0.8 mg
  Testes weight: 1.8 ± 0.1 g
  Ventral Prostate weight: 64 ± 9 mg
  Whole Prostate weight: 245 ± 31 mg
  % Variation Adrenals weight: -5.88%
  % Variation Pituitary weight: -4.11%
  % Variation Testes weight: -11.33%
  % Variation Ventral Prostate weight: +16.36%
  % Variation Whole Prostate weight: -7.55%
[10]; 20 μg
  Adrenals weight: 33 ± 1 mg
  Pituitary weight: 6.5 ± 0.2 mg
  Testes weight: 0.65 ± 0.43 g
  Ventral Prostate weight: 26 ± 8 mg
  Whole Prostate weight: 41 ± 19 mg
  % Variation Adrenals weight: -2.94%
  % Variation Pituitary weight: -10.96%
  % Variation Testes weight: -68%
  % Variation Ventral Prostate weight: -53%
  % Variation Whole Prostate weight: -85%
[10]; 20 μg, listed as BM-21009
  % Variation Testes weight: -67.98%
  % Variation Ventral Prostate weight: -52.73%
  % Variation Whole Prostate weight: -84.53%
